The results in this text go back to PubChem BioAssay AID2060895 (Molecular Pharmacology Branch, DTP, NCI, 2025).

A number of entries come with more than one value. The other results are left out here. An entry can have further records. Results that share an entry are repeats across runs, samples, wells, individuals or studies. Marks such as [2022-09] give the month of the run.

As a reminder, the viability, T/C is the ratio of treated to control. As usually defined, the IC50 is the concentration at which inhibition is half-maximal.

The subject of this assay is PDC 899932-113-R3-J6 complex spheroid viability. The assay can be described thus: Anticancer human tumor 899932-113-R3-J6-PDC patient-derived melanoma cell line growth inhibition [RAS]. The following applies: for viability, T/C: stronger effect = lower value; for IC50: compound alone. The source says: RAS pathway inhibitors in Combinations in Complex Spheroids
A high-throughput screen of multi-cell type tumor spheroids was designed to identify active combinations of RAS pathway inhibitors and targeted small molecules. Complex spheroids include a stromal component modeled by human endothelial cells (HUVEC) and fibroblasts modeled by human mesenchymal stem cells (MSCs). The concentration ranges selected for each drug and investigational agent were based upon clinically achievable concentrations if the clinical Cmax of the agent was known.
Compounds. The drugs and investigational agents: abemaciclib (NSC768073), cobimetinib (NSC768068), divarasib (GDC6063, NSC841802), docetaxel (NSC628503), GDC-1971 (RLY-1971, NSC841576), gemcitabine (NSC613327), inavolisib (NSC800729), ipatasertib (NSC767898), KB-0742 (NSC834161), MRTX-1133 (NSC836407), osimertinib (NSC779217), RMC-4630 (NSC839698), RMC-6236 (NSC851965), RMC-6291 (NSC852671), Ro-3306 (NSC812927), sapanisertib (NSC764658), SN-38 (NSC673596), staurosporine (NSC755774), SY5609 (NSC837396), and tovorafenib (DAY101, NSC766906), were obtained from the National Cancer Institute (NCI) Developmental Therapeutics Program Chemical Repository. The FDA-approved anticancer drug set is available from the NCI Developmental Therapeutics Program. […] The stock solutions were prepared in dimethyl sulfoxide (DMSO, Sigma-Aldrich, St. Louis, MO, cat. D2650) at 800-fold the tested concentration and stored at -70 degrees C prior to their use. All drugs and investigational agents were tested over a range starting from a high concentration at or near the clinical Cmax and decreasing in half-log increments. If the clinical Cmax for an agent had not been determined, the highest concentration tested was 10 microM.
Cell Culture. All cells were maintained in an incubator at 37 degrees C and 5% CO2 with 95% humidity. The PDC lines were cultured according to standard operating procedures established by the NCI PDMR. All PDCs were thawed and cultured in Matrigel-coated flasks prepared with a working solution of 1X Ham's F-12 nutrient mix, without supplementation (Invitrogen, Waltham, MA, cat. 11765054), 100 U/mL penicillin-streptomycin (Invitrogen, cat. 15140122), and 2.5% Matrigel (Corning Inc., Corning, NY, cat. 354248) for the first three passages. The 362531-283-R-J2-PDC and 782815-120-R-J1-PDC lines were cultured in 6C/Colon 1B media, which includes advanced DMEM/F-12 (Thermo Fisher Scientific, cat. 12634028), 10 mM HEPES (Thermo Fisher Scientific, cat. 15630080), 1X GlutaMAX supplement (Thermo Fisher Scientific, cat. 35050061), 0.1 mg/mL primocin (InvivoGen, San Diego, CA, cat. ant-pm-2), 10% defined fetal bovine serum, heat inactivated (HyClone Laboratories Inc., Logan, UT, cat. SH30070.03HI), 50% L-WRN conditioned media (ATCC, cat. CRL-3276), 1.25 mM N-Acetyl-L-cysteine (Sigma-Aldrich, cat. A9165), 10 mM nicotinamide (Sigma-Aldrich, cat. N0636), 1X B-27 supplement (Thermo Fisher Scientific, cat. 17504044), 1X N-2 supplement (Thermo Fisher Scientific, cat. 17502048), 50 ng/mL human EGF (Thermo Fisher Scientific, cat. PHG0311), and 10 microM Y-27632 dihydrochloride (Tocris Bioscience, cat. 1254). The K12877-001-R-J1-PDC line was cultured in 6I media, which includes all 6C/Colon 1B media plus 10 ng/mL human FGF-10 (PeproTech, cat. 100-26), 1 ng/mL human FGF-2 (PeproTech, cat. 100-18B), 1 µM prostaglandin E2 (Tocris Bioscience, cat. 2296), […] hydrocortisone (Sigma-Aldrich, cat. H4001), and […] bovine insulin (Sigma-Aldrich, cat. I6634). The K86415-001-R-J1-PDC line was cultured in 6D media, which includes all 6C/Colon 1B media components minus the L-WRN conditioned media. The 485176-168-R4-J1-PDC was cultured in PANC media, which includes all 6C/Colon 1B media plus 100 ng/mL human FGF-10 (PeproTech, cat. 100-26), 500 nM SB-431542 (Selleckchem, cat. S1067), and 10 nM gastrin (Tocris Bioscience, cat. 3006). […]
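Wherever viability, T/C is given: spheroids exposed to agents for seven days before readout.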

In the case of `O=C(c1ccc(F)c(F)c1Nc1ccc(I)cc1F)N1CC(O)([C@@H]2CCCCN2)C1`, for the setting “compound alone 0.01 µM”, the viability, T/C is 43.6%, 24.6% [2024-08] and 50.3%, 27% [2024-09].

As for `CC(C)n1nc(-c2ccc3oc(N)nc3c2)c2c(N)ncnc21`, the viability, T/C was 86%, 78.9% [2024-08] and 89.6%, 104% [2024-09] (compound alone 0.01 µM); 99.7%, 42.2% [2024-08] and 43.3%, 51.5% [2024-09] (compound alone 0.1 µM).

For the molecule `CCC(CC)c1cc(NC2CCC(N)C2)n2nccc2n1` (stereo not drawn), the viability, T/C (compound alone 1 µM) is 78%, 59.7% [2024-08] and 86.4%, 87.7% [2024-09].

Take `C[C@@H](NC(=O)c1ncnc(N)c1Cl)c1ncc(C(=O)Nc2cc(C(F)(F)F)c(Cl)cn2)s1`: the viability, T/C by setting is: (compound alone 0.316 µM) 132%, 152% [2024-08] and 163%, 156% [2024-09]; (compound alone 1 µM) 140%, 155% [2024-08] and 150%, 167% [2024-09].

Regarding `CC1(O)CCCC1n1c(=O)c(C(F)F)cc2cnc(NC3CCN(S(C)(=O)=O)CC3)nc21` (stereo not drawn), the IC50 is 3.52 µM, 826 nM [2024-08] and 2.8 µM, 2.51 µM [2024-09].

For `CCc1c2c(nc3ccc(O)cc13)-c1cc3c(c(=O)n1C2)COC(=O)[C@]3(O)CC`, the IC50 was 18.9 nM, 6.15 nM [2024-08] and 20.8 nM, 37.6 nM [2024-09].
